# Test results taken from the supplement of paper PMC8728848.
# The other results are listed elsewhere or left out.
# B1: Neuropilin-1 (Homo sapiens), O14786 (protein)
# chain: FKCMEALGMESGEIHSDQITASSQYSTNWSAERSRLNYPENGWTPGEDSYREWIQVDLGLLRFVTAVGTQGAISKETKKKYYVKTYKIDVSSNGEDWITIKEGNKPVLFQGNTNPTDVVVAVFPKPLITRFVRIKPATWETGISMRFEVYGCKITDYPCSGMLGMVSGLISDSQITSSNQGDRNWMPENIRLVTSRSGWALPPAPHSYINEWLQIDLGEEKIVRGIIIQGGKHRENKVFMRKFKIGYSNNGSDWKMIMDDSKRKAKSFEGNNNYDTPELRTFPALSTRFIRIYPERATHGGLGLRMELLGCEVE
# Experiments:
# Assay in all cases: glycan array binding signal (z-score within array); higher = stronger binding
# Details in all cases: glycan notation: IUPAC condensed, linker removed
# [1] = molecular target: Fuc(a1-2)Gal
# Method in brief: (§1)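 Glycan array data were curated from 3228 arrays in the Consortium for Functional Glycomics database and kept only where the protein sequence was available. Glycan names were converted to IUPAC-condensed notation, and columns mapping to the same glycan were averaged. The binding signal is a within-array Z-score, averaged across arrays of the same protein sequence at different concentrations or buffers and across linkers. Negative Z-scores can be read as non-binding.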
# [2] = molecular target: Fuc(a1-2)Gal(b1-3)GalNAc
# Method in brief: as §1
# [3] = molecular target: Fuc(a1-2)Gal(b1-3)GalNAc(b1-3)Gal
# Method in brief: as §1
# [4] = molecular target: Fuc(a1-2)Gal(b1-3)GalNAc(b1-3)Gal(a1-4)Gal(b1-4)Glc
# Method in brief: as §1
# [5] = molecular target: Fuc(a1-2)Gal(b1-3)GalNAc(b1-4)[Neu5Ac(a2-3)]Gal(b1-4)Glc
# Method in brief: as §1
# [6] = molecular target: Fuc(a1-2)Gal(b1-3)GlcNAc
# Method in brief: as §1
# [7] = molecular target: Fuc(a1-2)Gal(b1-3)GlcNAc(b1-2)Man(a1-3)[Fuc(a1-2)Gal(b1-3)GlcNAc(b1-2)Man(a1-6)]Man(b1-4)GlcNAc(b1-4)GlcNAc
# Method in brief: as §1
# [8] = molecular target: Fuc(a1-2)Gal(b1-3)GlcNAc(b1-3)Gal(b1-4)Glc
# Method in brief: as §1
# [9] = molecular target: Fuc(a1-2)Gal(b1-3)GlcNAc(b1-3)[Gal(b1-4)[Fuc(a1-3)]GlcNAc(b1-6)]Gal(b1-4)Glc
# Method in brief: as §1
# [10] = molecular target: Fuc(a1-2)Gal(b1-3)[Fuc(a1-4)]GlcNAc
# Method in brief: as §1
# [11] = molecular target: Fuc(a1-2)Gal(b1-3)[Fuc(a1-4)]GlcNAc(b1-2)Man(a1-3)[Fuc(a1-2)Gal(b1-3)[Fuc(a1-4)]GlcNAc(b1-2)Man(a1-6)]Man(b1-4)GlcNAc(b1-4)GlcNAc
# Method in brief: as §1
# [12] = molecular target: Fuc(a1-2)Gal(b1-4)Glc
# Method in brief: as §1
# [13] = molecular target: Fuc(a1-2)Gal(b1-4)Glc6S
# Method in brief: as §1
# [14] = molecular target: Fuc(a1-2)Gal(b1-4)GlcNAc
# Method in brief: as §1
# [15] = molecular target: Fuc(a1-2)Gal(b1-4)GlcNAc(b1-2)Man(a1-3)[Fuc(a1-2)Gal(b1-4)GlcNAc(b1-2)Man(a1-6)]Man(b1-4)GlcNAc(b1-4)GlcNAc
# Method in brief: as §1
# [16] = molecular target: Fuc(a1-2)Gal(b1-4)GlcNAc(b1-3)Gal(b1-4)GlcNAc
# Method in brief: as §1
# [17] = molecular target: Fuc(a1-2)Gal(b1-4)GlcNAc(b1-3)Gal(b1-4)GlcNAc(b1-3)Gal(b1-4)GlcNAc
# Method in brief: as §1
# [18] = molecular target: Fuc(a1-2)Gal(b1-4)GlcNAc6S
# Method in brief: as §1
# [19] = molecular target: Fuc(a1-2)Gal(b1-4)[Fuc(a1-3)]GlcNAc
# Method in brief: as §1
# [20] = molecular target: Fuc(a1-2)Gal(b1-4)[Fuc(a1-3)]GlcNAc(b1-2)Man(a1-3)[Fuc(a1-2)Gal(b1-4)[Fuc(a1-3)]GlcNAc(b1-2)Man(a1-6)]Man(b1-4)GlcNAc(b1-4)GlcNAc
# Method in brief: as §1
# [21] = molecular target: Fuc(a1-2)Gal(b1-4)[Fuc(a1-3)]GlcNAc(b1-3)Gal(b1-4)[Fuc(a1-3)]GlcNAc
# Method in brief: as §1
# [22] = molecular target: Fuc(a1-2)Gal(b1-4)[Fuc(a1-3)]GlcNAc(b1-3)Gal(b1-4)[Fuc(a1-3)]GlcNAc(b1-3)Gal(b1-4)[Fuc(a1-3)]GlcNAc
# Method in brief: as §1
# [23] = molecular target: Fuc(a1-2)Gal6S(b1-4)Glc
# Method in brief: as §1
# [24] = molecular target: Fuc(a1-2)Gal6S(b1-4)Glc6S
# Method in brief: as §1
# [25] = molecular target: Fuc(a1-2)Gal6S(b1-4)GlcNAc
# Method in brief: as §1
# [26] = molecular target: Fuc(a1-2)[Gal(a1-3)]Gal
# Method in brief: as §1
# [27] = molecular target: Fuc(a1-2)[Gal(a1-3)]Gal(b1-3)GlcNAc
# Method in brief: as §1
# [28] = molecular target: Fuc(a1-2)[Gal(a1-3)]Gal(b1-3)GlcNAc(b1-2)Man(a1-3)[Fuc(a1-2)[Gal(a1-3)]Gal(b1-3)GlcNAc(b1-2)Man(a1-6)]Man(b1-4)GlcNAc(b1-4)GlcNAc
# Method in brief: as §1
# [29] = molecular target: Fuc(a1-2)[Gal(a1-3)]Gal(b1-4)Glc
# Method in brief: as §1
# [30] = molecular target: Fuc(a1-2)[Gal(a1-3)]Gal(b1-4)GlcNAc
# Method in brief: as §1
# [31] = molecular target: Fuc(a1-2)[Gal(a1-3)]Gal(b1-4)GlcNAc(b1-2)Man(a1-3)[Fuc(a1-2)[Gal(a1-3)]Gal(b1-4)GlcNAc(b1-2)Man(a1-6)]Man(b1-4)GlcNAc(b1-4)GlcNAc
# Method in brief: as §1
# [32] = molecular target: Fuc(a1-2)[Gal(a1-3)]Gal(b1-4)[Fuc(a1-3)]GlcNAc
# Method in brief: as §1
# [33] = molecular target: Fuc(a1-2)[Gal(a1-4)]Gal(b1-4)GlcNAc
# Method in brief: as §1
# [34] = molecular target: Fuc(a1-2)[GalNAc(a1-3)]Gal
# Method in brief: as §1
# [35] = molecular target: Fuc(a1-2)[GalNAc(a1-3)]Gal(b1-3)GlcNAc
# Method in brief: as §1
# [36] = molecular target: Fuc(a1-2)[GalNAc(a1-3)]Gal(b1-3)GlcNAc(b1-2)Man(a1-3)[Fuc(a1-2)[GalNAc(a1-3)]Gal(b1-3)GlcNAc(b1-2)Man(a1-6)]Man(b1-4)GlcNAc(b1-4)GlcNAc
# Method in brief: as §1
# [37] = molecular target: Fuc(a1-2)[GalNAc(a1-3)]Gal(b1-4)Glc
# Method in brief: as §1
# [38] = molecular target: Fuc(a1-2)[GalNAc(a1-3)]Gal(b1-4)GlcNAc
# Method in brief: as §1
# [39] = molecular target: Fuc(a1-2)[GalNAc(a1-3)]Gal(b1-4)GlcNAc(b1-2)Man(a1-3)[GalNAc(a1-3)[Fuc(a1-2)]Gal(b1-4)GlcNAc(b1-2)Man(a1-6)]Man(b1-4)GlcNAc(b1-4)GlcNAc
# Method in brief: as §1
# [40] = molecular target: Fuc(a1-2)[GalNAc(a1-3)]Gal(b1-4)GlcNAc(b1-3)Gal(b1-4)GlcNAc
# Method in brief: as §1
# [41] = molecular target: Fuc(a1-2)[GalNAc(a1-3)]Gal(b1-4)GlcNAc(b1-3)Gal(b1-4)GlcNAc(b1-3)Gal(b1-4)GlcNAc
# Method in brief: as §1
# [42] = molecular target: Fuc(a1-2)[GalNAc(a1-3)]Gal(b1-4)[Fuc(a1-3)]GlcNAc
# Method in brief: as §1
# [43] = molecular target: Fuc(a1-2)[GalNAc(a1-4)]Gal(b1-4)GlcNAc
# Method in brief: as §1
# [44] = molecular target: Fuc(a1-2)[GalNAc(b1-3)]Gal
# Method in brief: as §1
# [45] = molecular target: Fuc(a1-3)GlcNAc
# Method in brief: as §1
binder,measurement,setting,value
B1,glycan array binding signal (z-score),[1],-0.154
same,glycan array binding signal (z-score),[2],-0.211
same,glycan array binding signal (z-score),[3],-0.04
same,glycan array binding signal (z-score),[4],-0.235
same,glycan array binding signal (z-score),[5],-0.268
same,glycan array binding signal (z-score),[6],-0.247
same,glycan array binding signal (z-score),[7],1.14
same,glycan array binding signal (z-score),[8],-0.252
same,glycan array binding signal (z-score),[9],-0.204
same,glycan array binding signal (z-score),[10],-0.192
same,glycan array binding signal (z-score),[11],1.6
same,glycan array binding signal (z-score),[12],-0.304
same,glycan array binding signal (z-score),[13],-0.18
same,glycan array binding signal (z-score),[14],-0.196
same,glycan array binding signal (z-score),[15],5.83
same,glycan array binding signal (z-score),[16],-0.117
same,glycan array binding signal (z-score),[17],-0.244
same,glycan array binding signal (z-score),[18],-0.206
same,glycan array binding signal (z-score),[19],0.606
same,glycan array binding signal (z-score),[20],4.73
same,glycan array binding signal (z-score),[21],-0.208
same,glycan array binding signal (z-score),[22],-0.211
same,glycan array binding signal (z-score),[23],-0.089
same,glycan array binding signal (z-score),[24],0.017
same,glycan array binding signal (z-score),[25],-0.261
same,glycan array binding signal (z-score),[26],-0.293
same,glycan array binding signal (z-score),[27],-0.085
same,glycan array binding signal (z-score),[28],1.18
same,glycan array binding signal (z-score),[29],-0.162
same,glycan array binding signal (z-score),[30],-0.249
same,glycan array binding signal (z-score),[31],6.43
same,glycan array binding signal (z-score),[32],0.116
same,glycan array binding signal (z-score),[33],-0.207
same,glycan array binding signal (z-score),[34],-0.23
same,glycan array binding signal (z-score),[35],-0.089
same,glycan array binding signal (z-score),[36],1.01
same,glycan array binding signal (z-score),[37],-0.198
same,glycan array binding signal (z-score),[38],-0.225
same,glycan array binding signal (z-score),[39],5.34
same,glycan array binding signal (z-score),[40],-0.094
same,glycan array binding signal (z-score),[41],-0.007
same,glycan array binding signal (z-score),[42],0.088
same,glycan array binding signal (z-score),[43],-0.301
same,glycan array binding signal (z-score),[44],-0.276
same,glycan array binding signal (z-score),[45],-0.3
